Experimental data: paper PMC4336329 (PLoS ONE, 2015)
The campaign covered roughly 310,000 compounds. About 2,200 (0.71%) showed an effect of 50% or more. The effect is printed as a negative number. The list shows a part of the results.

Molecular target: human ether-à-go-go-related gene (hERG) potassium channel (human, UniProt Q12809)
Experiment: primary screen, population patch clamp on CHO cells stably expressing hERG

Sequence of human ether-à-go-go-related gene (hERG) potassium channel (Q12809 whole entry, looked up): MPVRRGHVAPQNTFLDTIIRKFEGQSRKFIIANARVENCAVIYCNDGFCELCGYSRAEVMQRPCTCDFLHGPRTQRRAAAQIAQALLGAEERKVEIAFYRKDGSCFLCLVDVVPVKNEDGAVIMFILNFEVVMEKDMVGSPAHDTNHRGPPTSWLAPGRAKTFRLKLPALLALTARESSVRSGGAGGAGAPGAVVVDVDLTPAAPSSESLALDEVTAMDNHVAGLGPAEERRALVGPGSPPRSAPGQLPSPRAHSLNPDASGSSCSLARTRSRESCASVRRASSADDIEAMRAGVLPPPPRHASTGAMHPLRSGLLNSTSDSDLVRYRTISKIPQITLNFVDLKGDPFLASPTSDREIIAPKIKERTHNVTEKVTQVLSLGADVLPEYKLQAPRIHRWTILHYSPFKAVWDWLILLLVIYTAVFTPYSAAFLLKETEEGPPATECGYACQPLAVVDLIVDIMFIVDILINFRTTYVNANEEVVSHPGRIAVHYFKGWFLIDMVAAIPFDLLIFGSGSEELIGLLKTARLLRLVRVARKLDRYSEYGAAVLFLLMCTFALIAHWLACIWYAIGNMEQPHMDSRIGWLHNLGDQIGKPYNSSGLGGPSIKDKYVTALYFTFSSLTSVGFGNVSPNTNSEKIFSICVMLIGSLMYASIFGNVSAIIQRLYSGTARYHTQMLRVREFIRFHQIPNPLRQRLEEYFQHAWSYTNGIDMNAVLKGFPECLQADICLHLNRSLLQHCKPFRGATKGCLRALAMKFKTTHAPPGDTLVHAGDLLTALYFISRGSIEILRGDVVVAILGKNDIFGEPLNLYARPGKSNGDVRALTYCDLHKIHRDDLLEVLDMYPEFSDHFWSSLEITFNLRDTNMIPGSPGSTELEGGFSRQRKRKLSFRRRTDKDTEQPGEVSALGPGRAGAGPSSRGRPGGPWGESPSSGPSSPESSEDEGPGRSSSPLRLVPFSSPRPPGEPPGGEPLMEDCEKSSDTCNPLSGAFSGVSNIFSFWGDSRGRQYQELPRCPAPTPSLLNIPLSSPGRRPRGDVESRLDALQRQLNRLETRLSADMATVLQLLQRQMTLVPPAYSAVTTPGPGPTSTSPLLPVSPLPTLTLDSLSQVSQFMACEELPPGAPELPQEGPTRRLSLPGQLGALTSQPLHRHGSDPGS

Row | SMILES | hERG current change (%, negative = inhibition) at 1uM [%]
1 | COc1ccc(Cn2nc(C(=O)O)c3ccccc3c2=O)cc1F | 15.1
2 | O=C(C1CCCN(C2CC(=O)N(c3ccc(Cl)cc3)C2=O)C1)N1CCCC1 (stereo not shown) | 12.5
3 | CSCC[C@H](NC(=O)c1ccc2c(c1)OCO2)c1nnc2ccccn12 | -3.7
4 | Cc1cc(C)c2c(N)c(C(=O)Nc3ccc(C)c(C)c3)sc2n1 | 8.28
5 | O=C1CC(N2CCC(n3c(=O)[nH]c4ccccc43)CC2)C(=O)N1Cc1ccccc1 (stereo not shown) | 5.14
6 | O=c1cc(CSc2ccc(Cl)cc2)nc(N2CCOCC2)[nH]1 | 9.78
7 | COC(=O)C(NC(C)=O)(Nc1nc2c(C)cc(C)cc2s1)C(F)(F)F (stereo not shown) | 21.5
8 | COc1ccc(OC)c(C2c3c(oc4ccccc4c3=O)C(=O)N2CCCN(C)C)c1 (stereo not shown) | 16.1
9 | O=C(COC(=O)CNS(=O)(=O)c1ccc(Br)cc1Cl)NCCc1ccccc1 | 12
10 | O=C(NCCc1ccccc1F)[C@@H]1CSC2c3ccccc3C(=O)N21 (stereo partly shown) | 5.23
11 | CCC(NC(=O)c1ccccc1NC(=O)c1ccccc1)C(=O)NNC(=O)c1cccnc1 (stereo not shown) | 9.6
12 | N#Cc1cnc2sc3ccccc3n2c1=N | -11.7
13 | O=C(CCc1nc2ccccc2c(=O)[nH]1)NCc1ccco1 | -15.5
14 | CN(C)/C=C1\C(=O)N(C)N=C1C(F)(F)F | 1.99
15 | CC(C)NC(=O)c1ccc(Cl)cc1Cl | 14.1
16 | COCCc1nn2c(=O)cc(COC(=O)c3cc(OC)c(OC)c(OC)c3)nc2s1 | -3.3
17 | O=[N+]([O-])c1ccc2n[nH]nc2c1 | 15
18 | Cc1nn(C)c(C)c1/C=N/NC(=O)c1csc2ccccc12 | 1.92
19 | CC(NS(=O)(=O)c1ccc(Cl)cc1)C(=O)OCC(=O)c1ccc[nH]1 (stereo not shown) | 9.11
20 | Cc1ccc(C)c(OCC(=O)Nc2ccc(S(=O)(=O)Nc3onc(C)c3C)cc2)c1 | 11.2

Row | SMILES | hERG current change (%, negative = inhibition) at 1uM [%]
21 | COCCn1c(SCC(=O)N2CC(C)OC(C)C2)nc2c([nH]c3ccccc32)c1=O (stereo not shown) | 2.51
22 | O=C(CN1CCc2ccccc21)NCc1ccc2c(c1)OCO2 | 15.2
23 | O=C(CN1C(=O)c2ccccc2S1(=O)=O)NCc1ccccn1 | 11.1
24 | O=C(NNC(=O)C1CC(c2cccs2)=NO1)NC1CCCCC1 (stereo not shown) | 14.7
25 | COc1ccc(-c2csc(N(CCc3ccccc3)C(=O)COc3ccccc3)n2)cc1 | 13.7
26 | C=CCNC(=O)Nc1ccc2nc(C)sc2c1 | 11.4
27 | Cc1cccc(NC(=O)c2ccc3c(c2)C(=O)N(Cc2cccnc2)C3=O)c1C | 4.06
28 | Cn1nnnc1SCC(=O)N1CCCCC1 | 3.59
29 | COC(C(=O)NNS(=O)(=O)c1ccc([N+](=O)[O-])cc1)c1ccccc1 (stereo not shown) | 12.5
30 | O=C(CCn1c(=O)[nH]c2ccccc2c1=O)N1CC=C(c2ccccc2)CC1 | 5.58
31 | O=C(Nc1ccc(F)cc1)C1COc2ccccc2O1 (stereo not shown) | 16.5
32 | COc1ccc(/C=C/C(=O)NC(=S)Nc2ccc(S(=O)(=O)Nc3nccnc3OC)cc2)cc1 | 3.71
33 | O=C(NCc1ccccn1)c1ccc(Cl)c(S(=O)(=O)Nc2ccccc2C(=O)NCc2ccccn2)c1 | 11.3
34 | Cc1nc(Cl)cc(N/N=C/c2ccccc2)n1 | 14.2
35 | O=C(c1cc([N+](=O)[O-])ccc1N1CCOCC1)N1CCCCC1 | 11.3
36 | CCCCCc1cc(O)c2c(C)cc(=O)oc2c1 | 9
37 | COc1ccc(C(=O)CSc2ncn[nH]2)cc1OC | 5.09
38 | Cl.Oc1cccc(Nc2nc(NCC3CCCO3)c3ccccc3n2)c1 (stereo not shown) | -28.1
39 | Cc1c(C(=O)N(C)Cc2cccc(F)c2)oc2c(Cl)cccc12 | 11.5
40 | CSc1nnc(-c2ccccc2Cl)o1 | 11.4

Row | SMILES | hERG current change (%, negative = inhibition) at 1uM [%]
41 | Cn1c(=O)c2c(n(C)c1=O)=NC1(CCCCC1)N=2 | 5.44
42 | CCOc1ccc(CNC(=O)C2CCN(S(=O)(=O)N3CCCC3)CC2)cc1OC | 15.7
43 | CCOC(=O)c1c(C)[nH]c(C(=O)COC(=O)CNC(=O)c2ccc(Br)cc2)c1C | 4.43
44 | Cc1c(NC(=O)C2CCCNC2=O)c(=O)n(-c2ccccc2)n1C (stereo not shown) | 10.3
45 | O=C(NC(=S)Nc1nc(-c2ccccc2)cs1)c1cccnc1 | 4.59
46 | O=C1CCCC(=O)N1c1ccc(Oc2ccc(Cl)cc2)cc1 | 11
47 | C=C(Cl)COC(=O)[C@H]1C2C=CC(C2)C1C(=O)O (stereo partly shown) | 2.85
48 | O=C(c1ccc(C(F)(F)F)cc1)C1CCCN(Cc2ccncc2)C1 (stereo not shown) | -7.99
49 | Cc1ccc(NC(=O)CCNS(=O)(=O)c2ccc3c(c2)c(=O)n(C)c(=O)n3C)cc1C | 11.3
50 | CC(=O)Nc1ccc(N2S(=O)(=O)c3ccccc3S2(=O)=O)cc1 | 4.71
51 | CCOc1ccc(C(=O)NCc2ccco2)cc1 | -4.13
52 | CC1CCN(C(=O)CN(c2ccc3c(c2)OCO3)S(C)(=O)=O)CC1 | 13
53 | O=S(=O)(/N=C(/NS(=O)(=O)c1ccccc1)c1ccccc1)c1ccccc1 | 16.8
54 | O=C1CC(c2ccccc2)CCc2sccc2N1 (stereo not shown) | 6.32
55 | COc1ccccc1Cn1[nH]nnc1=S | 12.5
56 | CCn1c(CNC(=O)COc2ccc(C(C)C)cc2)nnc1SCC(=O)Nc1ccccc1F | -6.89
57 | O=C(NCc1ccncc1)C(=O)NCC1OCCCN1S(=O)(=O)c1ccccc1 (stereo not shown) | 9.43
58 | CCOC(=O)c1ccc(-n2c(C)nc3c(cnn3-c3ccccc3C)c2=O)cc1 | 12
